These are yes or no findings as the source states them, for the method shown. In cells and extracts the contact can be indirect. Some entries that bind do so weakly or less than the wild type. Tags and fused reporters may be left off the sequences shown.

Chains of the proteins cited; added tags and fusions are not shown. Lines headed by an entry give the natural chain unless they say otherwise; changes in a name come on top. A line that says so, or that is headed by a name, gives the form on record, which may keep a tag or linker. Residues count along the entry.
soluble form of FLAG-tagged FAM20C (wild type) (Q8IXL6, residues 43-584): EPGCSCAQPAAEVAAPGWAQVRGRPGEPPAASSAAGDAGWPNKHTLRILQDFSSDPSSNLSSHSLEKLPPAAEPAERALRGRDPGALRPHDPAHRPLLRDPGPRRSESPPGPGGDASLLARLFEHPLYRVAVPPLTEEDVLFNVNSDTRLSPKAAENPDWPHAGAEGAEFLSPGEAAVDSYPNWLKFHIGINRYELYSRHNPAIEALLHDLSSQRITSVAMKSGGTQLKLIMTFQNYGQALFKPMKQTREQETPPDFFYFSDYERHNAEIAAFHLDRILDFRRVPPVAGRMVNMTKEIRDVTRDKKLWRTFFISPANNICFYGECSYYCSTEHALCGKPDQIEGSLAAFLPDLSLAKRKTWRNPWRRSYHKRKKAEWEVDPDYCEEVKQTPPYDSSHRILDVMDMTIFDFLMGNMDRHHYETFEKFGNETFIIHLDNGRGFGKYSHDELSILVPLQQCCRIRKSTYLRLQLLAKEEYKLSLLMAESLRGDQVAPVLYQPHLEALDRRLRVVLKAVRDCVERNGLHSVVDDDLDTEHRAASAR
soluble form of FLAG-tagged FAM20C R549W (Q8IXL6-1, form named): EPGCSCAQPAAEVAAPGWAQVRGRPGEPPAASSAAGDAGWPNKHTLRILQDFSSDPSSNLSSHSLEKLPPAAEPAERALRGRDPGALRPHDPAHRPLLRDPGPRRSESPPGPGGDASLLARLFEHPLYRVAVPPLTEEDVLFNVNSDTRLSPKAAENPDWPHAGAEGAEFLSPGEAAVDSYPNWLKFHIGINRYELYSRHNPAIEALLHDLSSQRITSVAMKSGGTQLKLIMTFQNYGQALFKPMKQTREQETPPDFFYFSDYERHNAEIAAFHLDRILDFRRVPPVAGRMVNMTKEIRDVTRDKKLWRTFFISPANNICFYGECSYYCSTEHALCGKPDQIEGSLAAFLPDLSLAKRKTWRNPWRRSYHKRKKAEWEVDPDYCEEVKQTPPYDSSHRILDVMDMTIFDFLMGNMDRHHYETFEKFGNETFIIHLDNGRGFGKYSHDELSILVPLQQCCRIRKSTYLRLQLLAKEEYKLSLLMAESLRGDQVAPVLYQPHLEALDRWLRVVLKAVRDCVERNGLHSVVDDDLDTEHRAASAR
soluble form of FLAG-tagged FAM20C G379R (Q8IXL6-1, form named): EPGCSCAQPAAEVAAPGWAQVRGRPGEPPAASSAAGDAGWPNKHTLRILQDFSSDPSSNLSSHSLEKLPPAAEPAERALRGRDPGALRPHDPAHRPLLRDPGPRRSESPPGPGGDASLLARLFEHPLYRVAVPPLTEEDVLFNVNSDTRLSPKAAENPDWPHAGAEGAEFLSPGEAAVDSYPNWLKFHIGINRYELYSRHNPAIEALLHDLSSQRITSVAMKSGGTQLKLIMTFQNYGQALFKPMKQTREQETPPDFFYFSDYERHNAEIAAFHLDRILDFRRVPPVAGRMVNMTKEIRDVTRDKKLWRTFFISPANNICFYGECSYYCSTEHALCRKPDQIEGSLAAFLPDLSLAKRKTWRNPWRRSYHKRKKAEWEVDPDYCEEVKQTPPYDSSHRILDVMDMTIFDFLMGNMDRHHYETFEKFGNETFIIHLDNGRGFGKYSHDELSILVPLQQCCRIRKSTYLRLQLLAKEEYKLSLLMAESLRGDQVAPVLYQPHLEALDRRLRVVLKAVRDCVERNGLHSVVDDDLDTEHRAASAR
soluble form of FLAG-tagged FAM20C L388R (Q8IXL6-1, form named): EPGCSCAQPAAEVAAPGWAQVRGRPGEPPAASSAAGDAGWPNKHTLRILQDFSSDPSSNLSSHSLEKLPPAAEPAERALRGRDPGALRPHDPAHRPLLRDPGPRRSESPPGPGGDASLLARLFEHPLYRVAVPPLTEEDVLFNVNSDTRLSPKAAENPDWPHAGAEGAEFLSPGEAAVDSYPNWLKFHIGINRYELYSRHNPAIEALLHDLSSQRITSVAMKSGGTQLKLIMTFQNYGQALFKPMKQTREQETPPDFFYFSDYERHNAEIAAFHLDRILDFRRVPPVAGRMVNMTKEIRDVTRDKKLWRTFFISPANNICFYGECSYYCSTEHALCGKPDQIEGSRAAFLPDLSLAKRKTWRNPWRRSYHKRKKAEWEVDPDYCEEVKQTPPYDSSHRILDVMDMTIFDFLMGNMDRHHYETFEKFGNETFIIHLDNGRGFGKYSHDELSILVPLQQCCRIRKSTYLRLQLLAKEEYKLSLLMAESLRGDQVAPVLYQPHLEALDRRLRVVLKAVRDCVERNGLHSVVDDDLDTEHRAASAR
soluble form of FLAG-tagged FAM20C G379E (Q8IXL6-1, form named): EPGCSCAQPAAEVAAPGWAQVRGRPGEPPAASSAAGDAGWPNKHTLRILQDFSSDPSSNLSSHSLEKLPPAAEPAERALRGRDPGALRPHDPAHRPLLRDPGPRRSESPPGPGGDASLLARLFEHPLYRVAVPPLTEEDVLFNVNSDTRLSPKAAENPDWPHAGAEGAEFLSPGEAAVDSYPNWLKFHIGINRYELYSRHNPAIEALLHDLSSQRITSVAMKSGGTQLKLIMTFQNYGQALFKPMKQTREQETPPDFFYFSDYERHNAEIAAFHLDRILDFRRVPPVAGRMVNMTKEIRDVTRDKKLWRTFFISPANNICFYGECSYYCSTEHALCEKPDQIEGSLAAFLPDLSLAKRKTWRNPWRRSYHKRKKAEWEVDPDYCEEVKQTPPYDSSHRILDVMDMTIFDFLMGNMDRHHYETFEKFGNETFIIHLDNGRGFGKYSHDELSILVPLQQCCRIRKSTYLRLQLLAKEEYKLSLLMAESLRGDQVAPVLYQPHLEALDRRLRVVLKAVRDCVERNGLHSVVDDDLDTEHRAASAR

This assay deals with T1, soluble form of His-tagged chondroitin 4-O-sulfotransferase-1 (UniProt Q9NPF2).
T1 sequence: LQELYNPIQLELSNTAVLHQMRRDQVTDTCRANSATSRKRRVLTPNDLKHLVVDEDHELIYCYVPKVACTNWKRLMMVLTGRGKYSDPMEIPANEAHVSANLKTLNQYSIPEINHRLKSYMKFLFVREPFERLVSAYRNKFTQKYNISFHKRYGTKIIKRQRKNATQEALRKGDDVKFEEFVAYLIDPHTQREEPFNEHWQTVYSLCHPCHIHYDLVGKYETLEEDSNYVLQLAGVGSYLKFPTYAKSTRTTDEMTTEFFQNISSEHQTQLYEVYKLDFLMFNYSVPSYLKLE
Description: pull-down; culture medium of COS-1 cells co-expressing soluble His-tagged C4ST-1 and FLAG-tagged FAM20 proteins; Ni-NTA agarose or anti-FLAG tag antibody beads, 4 °C, 1 h; washed with TBS with 0.05% Tween 20; eluted with imidazole or FLAG peptide; immunoblot.
Regarding “soluble form of FLAG-tagged FAM20C R549W (from UniProt Q8IXL6-1 43-584) (enzyme)”, the binding result is recorded as “no binding”.
“soluble form of FLAG-tagged FAM20C G379R (from UniProt Q8IXL6-1 43-584) (enzyme)”: the binding entry was “no binding”.
“soluble form of FLAG-tagged FAM20C L388R (from UniProt Q8IXL6-1 43-584) (enzyme)”: the binding result is listed as “no binding”.
Take “soluble form of FLAG-tagged FAM20C G379E (from UniProt Q8IXL6-1 43-584) (enzyme)”: the binding entry is “no binding”.
Then “soluble form of FLAG-tagged FAM20C (wild type) (from UniProt Q8IXL6-1 43-584) (enzyme)”, with “binds”.

For the origin of these results see publication PMC9792594.
